The text below walks through data of patent US12497462 (IMMUNITYBIO, dated 2025).

For this assay, the target named is T1, Human adenosine deaminase (ADA) (human, UniProt P00813 1-363, limits assumed).
T1 construct: Bought reagent; also called Human ADA (R&D systems)
T1 sequence (looked up): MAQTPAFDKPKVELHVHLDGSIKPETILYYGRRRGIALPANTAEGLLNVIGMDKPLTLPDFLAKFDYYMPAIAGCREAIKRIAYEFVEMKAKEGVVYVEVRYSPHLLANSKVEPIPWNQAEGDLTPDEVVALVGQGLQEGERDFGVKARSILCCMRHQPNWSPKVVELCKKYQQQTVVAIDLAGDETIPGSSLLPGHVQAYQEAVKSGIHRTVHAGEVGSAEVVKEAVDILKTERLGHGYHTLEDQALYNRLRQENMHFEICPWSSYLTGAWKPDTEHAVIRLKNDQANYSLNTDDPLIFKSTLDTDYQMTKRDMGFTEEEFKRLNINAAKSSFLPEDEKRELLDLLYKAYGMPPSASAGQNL
The assay can be described thus: competition ELISA on coated CD26-Fc (5 µg/mL): ADA is varied and the blocked molecule is biotinylated CD26Ab-01D at 5 nM, read with SAHRP/ABTS. On the technique in general: In an ELISA, binding on a coated surface is turned into a signal by an enzyme label.

B1: Human CD26-Fc fusion protein (Fc fusion)
chain: NKGTDDATADSRKTYTLTDYLKNTYRLKLYSLRWISDHEYLYKQENNILVFNAEYGNSSVFLENSTFDEFGHSINDYSISPDGQFILLEYNYVKQWRHSYTASYDIYDLNKRQLITEERIPNNTQWVTWSPVGHKLAYVWNNDIYVKIEPNLPSYRITWTGKEDIIYNGITDWVYEEEVFSAYSALWWSPNGTFLAYAQFNDTEVPLIEYSFYSDESLQYPKTVRVPYPKAGAVNPTVKFFVVNTDSLSSVTNATSIQITAPASMLIGDHYLCDVTWATQERISLQWLRRIQNYSVMDICDYDESSGRWNCLVARQHIEMSTTGWVGRFRPSEPHFTLDGNSFYKIISNEEGYRHICYFQIDKKDCTFITKGTWEVIGIEALTSDYLYYISNEYKGMPGGRNLYKIQLSDYTKVTCLSCELNPERCQYYSVSFSKEAKYYQLRCSGPGLPLYTLHSSVNDKGLRVLEDNSALDKMLQNVQMPSKKLDFIILNETKFWYQMILPPHFDKSKKYPLLLDVYAGPCSQKADTVFRLNWATYLASTENIIVASFDGRGSGYQGDKIMHAINRRLGTFEVEDQIEAARQFSKMGFVDNKRIAIWGWSYGGYVTSMVLGSGSGVFKCGIAVAPVSRWEYYDSVYTERYMGLPTPEDNLDHYRNSTVMSRAENFKQVEYLLIHGTADDNVHFQQSAQISKALVDVGVDFQAMWYTDEDHGIASSTAHQHIYTHMSHFIKQCFSLP[human IgG1 Fc not written out]
notes: also called CD26/beads
Take B1: the binding result is reported as “binds”.
